Data reported in the supplement of paper PMC12632987.
In all, about 4,500 sequences were measured (“median log2 fold change of GCK-ALFA target abundance (FLAG IP / Myc IP barcode read proportion)”: median about 0.078, lowest 2% from about -0.6 on). This is one part of the list.

B1: GBRAP_131_3607 (protein)
chain: IKGKLVTIEDAASVEEALARVDEAVEEALEEGYDVIVINLQNVSQEIYDAAEEKADELEERLKKEKGVTLVVLPPGTTLEEAQKILEALVLDKEEEKEEE
B2: GBRAP_35_5529 (protein)
chain: ATDEEIAEMLVATIDDLVLALPDMPVETALAAAKSIAEAAREVAREVKDNLEALEKIRESVERLAKALAEQAKKDPAMQPALELAQEVLKEIEELIKKAK
B3: GBRAP_78_6685 (protein)
chain: EVEELLDKALEHLGKAAKILAKMNTEEALDILGVVIDAASTVWEAQEGEADLAELEAALKALKKALKEVEKIDSEEAKEAAKEIKKAIKALEAAIKLLKK
B4: GBRAP_128_3496 (protein)
chain: STEELVARTRAIMEAIGKADAAEAAALTREWVALLASADEEAREAMVEVFKELLPELDAEKLDVIADTLREARPGLDPETANLVAELEVEALNAAEEKEE
B5: GBRAP_160_4602 (protein)
chain: SEEVEKLIKEIKEIFDEALKLIEGESPEERLVIIRVAAGEVLLLLDESPIVTDETEEFADEVLDEVLEWLEENPDASLEEIRAKLEEALEKIRKKLEEEA
B6: GBRAP_150_3913 (protein)
chain: DLEELLTVVDTLIDLLEAILDGEYELLPHAIKVAEHAVELAEELEEEIKKLAKEMLEALKEAKKLLEEGGPEEEIKEAVEKALELAEKLEKLIKKLIKEK
B7: GBRAP_52_6322 (protein)
chain: AAARIAAYAAEAVAAIRAGDDAGARALAERMVAELTPEEILEMTRLVAEAIAGEDDAVHERAVEFFEYLADLVIEKRGDERTAADILGIVATTLYAAELA
B8: GBRAP_11_2641 (protein)
chain: KKEALKKALELAREAIELLEQLLKEGVDNEELLEEIRRKLEELAKLVKKHADKALQKLVEIALELLKEAQEDPENKEQYVQNLLAALRVLAAELEELIDE
B9: GBRAP_52_5881 (protein)
chain: KLEKAIELLKKAIKAQKEGKEEEAEKILKKIVEEFDEEVILAAVERLAEEIKSKSLEEAKAFYETAEKLAKILLEKGGSEEVASYIEALAGAALYEVEQK
B10: GBRAP_150_3925 (protein)
chain: SIEELLTIVDTLIDLLEGIKDGELSLVPHALKLAEAAKEEAKELPEEVREPVLKLLEEIIKLLKEIIAGAPEEERKKLIEKALELAKEVKELVEELLEEE
B11: GBRAP_52_6123 (protein)
chain: MEERARALVEEIIALIRAGREEEARALAREAVATLDEEELRLVADELAELIKAATPEEQELLERAAEIIAEELERAGRDEVLADYVLSRAAAAAYEAELA
B12: GBRAP_52_6127 (protein)
chain: MRERAEELVERLLELEREGRREELERLAREIVETLDDEELRLVADVLAERAKRASPEEAEVIERVAEVLARAIEEAGRDEVLADYVESRVAAALYEREQA
B13: GBRAP_9_7167 (protein)
chain: EEAVKQAILETVKEGFEEALKIVPEEKKPLVEKMKKKAEEELEKLVADPNTTVEELKEKALKLLDEFLEEMKKEVDPETYAGIETEILTAKVEIDEIVEK
B14: GBRAP_125_3059 (protein)
chain: SKEQAIADLELLARALGFSDDDIAELRRLAEAGSIKNTLIAIALALGDEELADALEKLSEEEVEEVLREVAEELERNPELTPEEVRELLLKKAKEALKKA
B15: GBRAP_35_5615 (protein)
chain: EDTELAVESFVDQAEAIIELIPEIDDETLAALARSLIKFARSLLEEEKNDKEALEKIKEAMEKLLKALKEHRSDNPLIRKVAEEVEKVIKELKEAIKKIK
B16: GBRAP_160_4698 (protein)
chain: TATAEKLKAFVKEEFEKAKEEIEGESREQRAVILAGTGGEILMELVEDPNATDELEDEVLAIFDDAVATLLANPNLTLEETKALIDEVEAKVLAAIDKHL
B17: GBRAP_125_3136 (protein)
chain: KRAALLALAEALARAMGFSEEEIAEIRRLAEAHDPAQTIVAIFLAAGAEEAAELAAEVLDKLSEEEIAALRALAEAARDLPLEEAVARLLAALKEAKAKL
B18: GBRAP_80_6776 (protein)
chain: ALERAEKAIAEVEKLDPELAKRLRKILEELLAKGVSDEVLEAFAEAVEAIAELLKLGAKEEAEELVEELEEAAEEEDDENILAMLRGIAGEALWEVEELE
B19: GBRAP_160_4544 (protein)
chain: KEKVEEAIKDIDERAAFVKSLVGKVSTEELINFFDVEVGSFIMELEELGLLTDELGEEIDKIADETKATLKANPNASDEEKKALIDEAAEKIKEAILKHS
B20: GBRAP_80_6835 (protein)
chain: MEEELEKAIKEIEKENKEIAKLVKEIVEIARKLGVPLEVLLRLTKAILELTKKDKEKALKLVKELLKEMKEALAAGNRDEALALLVDAESDALLHVEELE
B21: GBRAP_83_6957 (protein)
chain: MITVVATSKDDDIESAFDAAIDLHKEEGIEVEIEVYVTKESAETALKAAKKAIDAGVEAEITLVGLESEKETLLKLAEEIKAHAKAKGVNVKVEVIIEPE
B22: GBRAP_45_5801 (protein)
chain: KEELEKAVKELRELLKKLKEEVEKLLEKDPETMGKVLELLEEALKILDEGPDTVEKAKELLELVEEALKLLASSPHATGELLDLALEAVNKAAEVLELLK
B23: GBRAP_160_4347 (protein)
chain: MEAAEKLIKELKEATERVIAEVDKLSVEQVAVVAAGEFGAVAMEAAEDERYSDEMVDVIIDAQDKILAFLDENKDASPEEIKEGIKKITEEAIKKIKEIA
B24: GBRAP_184_5363 (protein)
chain: MVEHLSVDASTAEEVRERLAAARERIRAAGKPTTLHLFLRDADLETVETGARLLAELKDEGLIVDAVIDVPDERTEEEIDKLVAIADKYGVRLVVAIEDE
B25: GBRAP_160_4600 (protein)
chain: MEEAEKLLEEIEEIIDEAIEMIEGESPENRLVIIRVAMGEILLLIDSSPIVSEEVEDFADKELDAVVAWVEANPDASVEEIAAKLKAALAKIKEKILAEH
B26: GBRAP_184_5234 (protein)
chain: KVLDVEVRADDAAELAAQLAAVEAEAAAAGARVRLILDVKELTAEKAAVIAAQLRRMAAAGLIDLVEVISSTRIAEENVDLLVAAADAAGVRLVLAMVEE
B27: GBRAP_160_4446 (protein)
chain: SETLEKLLKLVEETEEEIKKLIEGQSHEERVVIVDVGFGELLLEFIENENVSDELEDEIDKIVRETVEYLKANPDLSEEEIKELIKETAEKIKEAIKKHL
B28: GBRAP_160_4409 (protein)
chain: SEELKKTAERILEAVKEELELLLELGEIDPEAAAGLLEGTILLEVFEDDSLTEEQEEKLEELAEELAEELRKRLEEEGKMTEEIKEELLKLAKEGLEKII
B29: GBRAP_78_6608 (protein)
chain: EKKEKIEELLDKAAELLRQVRKLEPEVANEANDAETLVNTALYMVTTGSESKEEIIEEVEEAAEEAERLLKLLEGKDKEVQELAKKALEYIKEALKLLKE

Biological target: GABARAP, O95166
Sequence (O95166 whole entry, the tested form may be a part): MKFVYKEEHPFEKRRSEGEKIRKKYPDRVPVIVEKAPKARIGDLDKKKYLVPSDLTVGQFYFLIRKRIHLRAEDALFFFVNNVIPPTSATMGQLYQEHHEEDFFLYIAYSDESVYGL
Assay: median log2 fold change of GCK-ALFA target abundance (FLAG IP / Myc IP barcode read proportion) (log2 ratio); each designed protein is fused to an ALFA-tag nanobody in HEK293 cells to bring the named protein to FLAG-tagged glucokinase (GCK); Myc marks an untargeted standard; higher = target protein stabilised (more abundant)
Conditions: target protein: 3xFLAG-MCP-GCK-ALFA reporter; HEK293 landing pad (RPLP)
Procedure, shortened: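 Binders fused to an ALFA nanobody were recombined as a library into HEK293 landing-pad cells, which were induced with 2 μg mL^−1 doxycycline and then transfected to express a FLAG-tagged target and a Myc-tagged standard. After 48 h, circular RNA barcodes recovered by anti-FLAG and anti-Myc immunoprecipitation of lysates were reverse transcribed, amplified and sequenced. Each binder's target abundance is the median log2 ratio of FLAG to Myc barcode read proportions, from barcodes present at ≥10^−7 in both replicates, binders carrying ≥3 barcodes per replicate, a 10^−6 pseudocount and pooled replicates.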

Binder	median log2 fold change
B1	0.174
B2	0.24
B3	-0.373
B4	0.208
B5	-0.397
B6	0.174
B7	-0.0845
B8	0.112
B9	0.313
B10	0.235
B11	0.226
B12	0.187
B13	0.291
B14	0.274
B15	0.0862
B16	-0.69
B17	-0.351
B18	-0.346
B19	0.0163
B20	0.133
B21	0.127
B22	-0.367
B23	0.152
B24	0.152
B25	-0.532
B26	0.0463
B27	-0.136
B28	-0.32
B29	0.181
